Reference: the RNAGym collection of RNA variant scans (doi:10.1073/pnas.2313332121)
This sample is rich in variants without activity.

B1: TPR 5TU (parent)
chain: GGAUCUUCUCGAUCUAACAAAAAAGACAAAUCUGCCACAAAGCUUGAGAGCAUCUUCGGAUGCAGAGGCGGCAGCCUUCGGUGGCGCGAUAGCGCCAACGUUCUCAACUAUGACACGCAAAACGCGUGCUCCGUUGAAUGGAGUUUAUCAUG

Variants of: B1
Assay: polymerase ribozyme fitness, log enrichment relative to wild type (log ratio); higher = more active; in vitro selection for triplet polymerase activity
Procedure, shortened: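 Input and output libraries were sequenced on Illumina after a single in vitro selection round, run in triplicate on PCR-built, transcribed mutant libraries of each subunit of a heterodimeric triplet polymerase ribozyme. Selection annealed libraries to a biotinylated primer, the partner subunit and triplets, incubated them frozen at −7 °C, then gel-excised extended constructs for streptavidin-bead capture and RT-PCR. Genotypes with ≥10 input reads and ≥1 read per output were kept. Fitness is the logarithm, taken in base 2, of genotype enrichment divided by wild-type enrichment, using inverse-variance-weighted replicate averages.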

Variant | polymerase ribozyme fitness (log ratio)
U55G C76A G84U A91G C95A C116G | ≤ -4.2
U55G G67C U78G G83U C93A U102A A121C | ≤ -4.2
U56G A60G A73G U90G A147C | ≤ -4.2
U55A C87A U90C | ≤ -4.2
U55G C57G C87G | ≤ -4.2
U56C G74C C85A G100C | ≤ -4.2
U56C G58A A60U C99G A115C A122G | ≤ -4.2
U55A G88A C103U A142U | ≤ -4.2
U56G A64C G65A G80C G83U A110C G136U G143U | ≤ -4.2
U56C U90A C95U | ≤ -4.2
U55G G59C G86A C103U U146C | -2.47
U56A G68C U77A C96G U104G C108U G141C | ≤ -4.2
U56G G92U | -2.1
U55G G70A C76A U82A G92C | ≤ -4.2
U56A G65C C79U A110C A115G C118A | ≤ -4.2
U55G G94A | -1.43
U55G C76G G92C | ≤ -4.2
U56A C99G G140U | -3.99
U55A C63G C93G C114A | ≤ -4.2
U55G U61A C79A C131G G133U A138G | ≤ -4.2
U56A U61A G140A | ≤ -4.2
U55A A66U A73U C131G | ≤ -4.2
U55G U82C C93A A98U C105U G126C A142C | ≤ -4.2
U56G G88C | ≤ -4.2

Variant | polymerase ribozyme fitness (log ratio)
U56G U77C U102C U127A | ≤ -4.2
U56A C75A G141A | ≤ -4.2
U56A C105U C116G | -0.192
U55G C75U A110G | ≤ -4.2
U55A U56A G71U U82A G86A C129U A150G | ≤ -4.2
U56A G83U | -0.976
C54U U102G U135G A142C | ≤ -4.2
U56C C75U A91U | ≤ -4.2
U56G U148G | -3.89
U56C G133U | -4.01
U55G G65U G84U C85U G86A A121U | ≤ -4.2
U55A U61C G94U | ≤ -4.2
U56A A60U U61A U77C G84U C96G U101G G136U A142G | ≤ -4.2
U55A C87A C108G | ≤ -4.2
U55A G62U C63G C87U A98U A120U C149G | ≤ -4.2
U56A G117U A138C | ≤ -4.2
U55A G67C C85A G86U G124U | ≤ -4.2
U55A G65C G88U G112A U134A G140U | ≤ -4.2
U55A G74A U78A G80U A119U A150G | ≤ -4.2
U56G U82G G88A A106G A110U | ≤ -4.2
U55A G65A G68A C123A U144G | ≤ -4.2
U55G A66U G94A | ≤ -4.2
U56A U61A | -1.51
U55A G74A C85G C116G G140U | ≤ -4.2

Variant | polymerase ribozyme fitness (log ratio)
C57A A98G C123G U145G | 0.398
U56A G80C G88C G141A | ≤ -4.2
U56G G84A A91G A115G | -4.1
U55G C96U C108G G152U | ≤ -4.2
U56G G59C G68U U90G U134A | ≤ -4.2
U56A U78A A121C | ≤ -4.2
U55A C85G G88C A98U | ≤ -4.2
U56A G74A C85G A107U G126U | ≤ -4.2
U55A G68A G84U | ≤ -4.2
U55C C57U G94A C129U A142C U146C | ≤ -4.2
U55A G88U | -4.14
U55A C57U G81A G84A | -0.555
U55A C72A C79A G86C | ≤ -4.2
U56G C85G A115U | -3.43
U56G G65C G67C C85A C93G C118U C149A | ≤ -4.2
U56G G88A A119C | ≤ -4.2
U55A U56G G80A | -1.37
U56A U61A U77G G84U A137G | ≤ -4.2
C54U U135A G136C | -3.76
U55A G67C G86C A113U C125A U148C | ≤ -4.2
U55C C93G | -3.57
U56A U77C G84A U144A | ≤ -4.2
U56G C75G C93U | -4.19
U55G C69A A97U A119U G141A | -1.39

Variant | polymerase ribozyme fitness (log ratio)
U55G A91C G141U G143A | ≤ -4.2
U55A C76A G88A U146G | ≤ -4.2
U55G A73G U104A C116A U134G | ≤ -4.2
U56A C75A G86C A98U | ≤ -4.2
U56G G58C U61A | -2.98
U55G C72G G143U | ≤ -4.2
U55A C85A C87G | ≤ -4.2
U56A U61G C85A A137U | ≤ -4.2
U55A C96G | -1.04
U56A U101G | 0.0793
U55C C75G A89G | ≤ -4.2
U55G G58C C76U C85U C149A | ≤ -4.2
U55A C85G A122G A138C | ≤ -4.2
U56A G88U A107U G141C | ≤ -4.2
U55A G62U G83U U90G C118U | ≤ -4.2
U56A U78A C79A | ≤ -4.2
U56A A142C A147G | ≤ -4.2
U55A G86U A91U | ≤ -4.2
U55A C85U G88U | ≤ -4.2
U55A G62C C63U G83U A89C A97U | ≤ -4.2
U56A A64G C79A G88A G92A U145G A147G | ≤ -4.2
U55A U135G | ≤ -4.2
U55A G126U A150C | ≤ -4.2
U55G C95U U148G | ≤ -4.2

Variant | polymerase ribozyme fitness (log ratio)
U56A G84A A110U A119C A150C G152A | ≤ -4.2
U55G G59A G83A A98C C116G U127G | -4.04
U55A G92A G143U | ≤ -4.2
U55C C85U G88U G126U U139G | ≤ -4.2
U55G C87U G92A U101G G143U | -3.33
U56A C87G | ≤ -4.2
U56A G59C C85U G86A G92A | ≤ -4.2
C57A A60G C75G A91U G136A A137G U144G | ≤ -4.2
U55A G126A | -1.02
U55G A91G U111G G141A U145G | ≤ -4.2
U56G G59A G81U A89C G92U U139A | ≤ -4.2
C54U U56A A60U G70U A115G A150C | ≤ -4.2
U55A G84C A113C C114A C132U | ≤ -4.2
U56A C123U | 0.128
U55A A64G U135A | ≤ -4.2
U55A A89C | -0.409
U56G G71C C123G | -3.58
U56A C79A U90C C96U A142U | ≤ -4.2
U55A U56A G71A U82G U102G | ≤ -4.2
U56A G74C C105G | ≤ -4.2
U55A U78A G92A A97G | ≤ -4.2
C54U U90G A91C | ≤ -4.2
U55G U77A C87U G92C A98G C131U A138C | ≤ -4.2
C54U U90C G94A C131U | ≤ -4.2

Variant | polymerase ribozyme fitness (log ratio)
U56C C79U | -1.8
U55A U56A G70C U77G C85A G94A G126C U148A | ≤ -4.2
U56A C96U G126A | -0.336
U55A C76U C85U A91G A107G C123G C125U U134G | ≤ -4.2
U55G G88U G117C | ≤ -4.2
U55A G80C | ≤ -4.2
U55G U61A G143C | ≤ -4.2
U55A C93U G133U G141U | ≤ -4.2
U56A C85A C93A C96G C103A G124U | ≤ -4.2
U55G C57U U78G C85G U148C | ≤ -4.2
U55A C79G G128C | ≤ -4.2
U56A C96U A107C G117C U134G A137G G143U | ≤ -4.2
U55A G83U C108U G128A | ≤ -4.2
U56A C79A G141A | ≤ -4.2
U55A U151G | ≤ -4.2
U55C G58C C85A G140C | ≤ -4.2
U55C U61A U82A | -2.36
U56A C72G U82G C85U G86A A89G C96G U101A A119G A120C | ≤ -4.2
U56A U130A | -2.03
U56C G68C G92C C132A | ≤ -4.2
U55G G68U C96A A98U | ≤ -4.2
U56A C76G U78C C96U A106G C123U A142C | ≤ -4.2
U55A A64U U82G C108U C114A G133A A137C | ≤ -4.2
U56A A107U A138G | ≤ -4.2

Variant | polymerase ribozyme fitness (log ratio)
U55A C76A A113G A142U A150U | ≤ -4.2
U56A C57U C96U | -0.285
U55G G74U C76A G94C G136C G152U | ≤ -4.2
U55A A60U G65U G88C | ≤ -4.2
U56G C72U | -0.106
U55A G58C A97G | 0.512
U56A A73U C87A A142C | ≤ -4.2
U55A G74A C75A C79G C103A | ≤ -4.2
U56A C87A G112A G126U U134G | ≤ -4.2
U56A C96U U101C U139G | -0.437
U55A C69G G83A C99U A115U U151A | ≤ -4.2
U55A A137G G141A | -1.96
U56A C75U C95A C96G U104G G133U | ≤ -4.2
U56A C103G G140U | ≤ -4.2
U56A G74U | ≤ -4.2
U56A G81A | -0.577
U55A U61G C87G U102G C125A G141C | ≤ -4.2
U56A A64U A89C A150G | ≤ -4.2
U56G G81A U104C U145C | -1.47
U55A C95U C131G U135C | ≤ -4.2
U56A G62C C79U A91C C116A A122C A142C G143A U151A | ≤ -4.2
U55A U102G U135C | ≤ -4.2
U56A G86C U101A A142U | ≤ -4.2
